# Out of some 220,000 compounds screened, about 5,700 (2.6%) were called active. Inconclusive means that the source gave no clear call. Such entries were picked first, then a sample of the others. Calls follow the shape of the dose curve; as a rule, active = well fitted inhibition curve with a large enough effect; inconclusive = small, poorly fitted or top-dose-only effect; inactive = no such curve, though single readings can be large or run the other way. Potencies beside an inconclusive call are fits to weak or partial responses and may not hold up.
# Biological target: Lysine-specific demethylase 5B (Homo sapiens) (UniProt Q9UGL1)
# Experiment: Primary screen for KDM5B Histone Demethylases FDH-coupled qHTS; also: nearly all actives have a fitted effect of over 70% in size; as to activity change, negative = inhibition: 0% is about no effect
# Settings: FDH-coupled NADH fluorescence (FDH is formaldehyde dehydrogenase); activity change, negative = inhibition: at 57.7 µM (top of the series) unless noted
# Method in brief: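 Compound dilutions met 200 nM (final) KDM5BΔAP for 10 min at room temperature before substrate addition. The substrate mix held 12.5 µM H3K4me3 with cofactors 25 µM α-ketoglutarate and 50 µM Fe²⁺. NADH signal gain over 30 min defined activity.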
# Potency is read from the fitted curve at half-maximal effect; tags tell the direction and shape of the fitted curve.
# Chain of UniProt Q9UGL1 (Q9UGL1 whole entry, looked up): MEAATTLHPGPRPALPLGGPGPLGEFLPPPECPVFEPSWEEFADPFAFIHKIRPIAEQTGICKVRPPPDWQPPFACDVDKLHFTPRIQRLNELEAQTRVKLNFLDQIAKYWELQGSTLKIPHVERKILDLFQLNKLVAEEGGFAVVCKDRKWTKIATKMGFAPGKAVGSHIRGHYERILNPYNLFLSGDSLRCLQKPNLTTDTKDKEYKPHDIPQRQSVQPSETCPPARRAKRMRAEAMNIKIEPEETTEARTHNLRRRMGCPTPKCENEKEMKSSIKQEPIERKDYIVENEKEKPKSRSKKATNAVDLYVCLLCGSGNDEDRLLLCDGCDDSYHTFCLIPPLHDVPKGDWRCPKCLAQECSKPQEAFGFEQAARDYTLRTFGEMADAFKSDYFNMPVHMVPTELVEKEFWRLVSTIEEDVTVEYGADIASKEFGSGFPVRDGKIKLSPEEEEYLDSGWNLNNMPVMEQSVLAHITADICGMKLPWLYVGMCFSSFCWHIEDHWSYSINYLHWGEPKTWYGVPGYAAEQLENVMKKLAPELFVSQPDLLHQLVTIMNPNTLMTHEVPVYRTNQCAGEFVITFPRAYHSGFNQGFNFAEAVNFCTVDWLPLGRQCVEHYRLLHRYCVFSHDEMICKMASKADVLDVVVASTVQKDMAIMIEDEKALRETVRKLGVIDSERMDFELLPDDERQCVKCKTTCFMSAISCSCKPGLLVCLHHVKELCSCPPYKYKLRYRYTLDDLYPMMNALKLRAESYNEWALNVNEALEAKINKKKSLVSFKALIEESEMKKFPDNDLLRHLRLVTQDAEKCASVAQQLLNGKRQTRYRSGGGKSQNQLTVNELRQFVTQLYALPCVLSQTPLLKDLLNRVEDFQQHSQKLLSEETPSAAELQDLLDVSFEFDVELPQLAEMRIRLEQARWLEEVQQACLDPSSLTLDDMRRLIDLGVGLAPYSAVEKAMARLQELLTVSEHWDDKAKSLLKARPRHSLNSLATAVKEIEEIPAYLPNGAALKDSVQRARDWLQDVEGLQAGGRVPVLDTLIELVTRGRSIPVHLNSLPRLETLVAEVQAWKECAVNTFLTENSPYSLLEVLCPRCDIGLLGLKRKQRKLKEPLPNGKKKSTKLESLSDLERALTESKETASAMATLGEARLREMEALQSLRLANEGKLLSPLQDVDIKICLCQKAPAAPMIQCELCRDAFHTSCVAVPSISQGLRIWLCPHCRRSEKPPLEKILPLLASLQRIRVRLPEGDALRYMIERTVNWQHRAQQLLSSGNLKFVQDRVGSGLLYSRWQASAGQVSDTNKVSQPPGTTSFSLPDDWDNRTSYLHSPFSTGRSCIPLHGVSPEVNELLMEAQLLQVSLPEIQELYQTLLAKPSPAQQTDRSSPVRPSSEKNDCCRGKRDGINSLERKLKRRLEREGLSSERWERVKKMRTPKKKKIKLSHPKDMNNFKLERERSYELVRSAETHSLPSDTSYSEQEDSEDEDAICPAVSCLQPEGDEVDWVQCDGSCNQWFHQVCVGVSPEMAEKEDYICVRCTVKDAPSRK
SMILES,"activity change, negative = inhibition",Potency
O=C(Nc1cccc2cccnc12)NC1CCCCCC1,inactive: 3.81%,–
CCn1nc(C(=O)Nc2cc(S(=O)(=O)N(C)C)ccc2C)c2ccccc2c1=O,inactive: -2.77%,–
COC(=O)c1cc(-c2ccccc2)nc2nc(SC)[nH]c(=O)c12,–,"inconclusive: 22.4 µM [inhibitor, partial curve, poor fit]"
CCc1ccc(NC(=O)c2cc(=O)c3cc(C)cc(C)c3o2)cc1,inactive: -3.23%,–
CCc1ccc(CNC(=O)COc2cc(=O)n(CC)c3ccccc23)cc1,–,"inconclusive: 15.8 µM [inhibitor, partial curve, poor fit]"
O=C(CCN(Cc1ccco1)C1CCCC1)Nc1ccccc1,inactive: 9.48%,–
CN1C(=O)[C@@H]2C[C@@H](CN2Cc2ccc(OC(F)(F)F)cc2)Oc2ccccc21,inactive: 12% [at 86.2 µM],–
COc1cccc(Nc2ccc3c(n2)C(C)(C(=O)NC(C)C)CN(C)C3)c1 (stereo not given),–,"inconclusive: 25.1 µM [inhibitor, partial curve, poor fit]"
CC(C)c1cccc(C(C)C)c1NC(=O)c1nn(C)c(=O)c2ccccc12,inactive: -4.75%,–
COc1ccc(-n2cc(-c3ccnc(N(C)Cc4cnccn4)n3)cn2)cc1,–,"inconclusive: 31.6 µM [inhibitor, single point]"
O=C(NCCc1ccccc1)c1cc2n(n1)CC(c1ccc(Cl)cc1)OC2 (stereo not given),inactive: -10.9%,–
CCCn1c(SCCCn2c(=O)c3c(ncn3C)n(C)c2=O)nc2ccccc2c1=O,inactive: 3.56%,–
Cc1cc(C)cc(C(=O)N2CCC(n3cc(-c4nc(C)no4)nn3)CC2)c1,inactive: 9.91%,–
CC(C)Cc1nc2nccc(-c3ccc(F)cc3)n2n1,–,"inconclusive: 28.2 µM [inhibitor, partial curve, poor fit]"
CCOc1ccc(CN2C(=O)c3ccccc3Sc3ccc(C(=O)NC)cc32)cc1,inconclusive: -39.9% [inhibitor],–
O=C(/C(Cl)=C/Nc1ccccn1)C(F)(F)F,–,"inconclusive: 25.1 µM [inhibitor, single point]"
NCc1ccc(-c2cccnc2)cc1,inactive: -22% [at 149 µM],–
COc1cccc(C(=O)NCc2cc(=O)n3nc(-c4cccc(C)c4)sc3n2)c1,inactive: 5.05%,–
Cc1cccc(CNC(=O)c2oc3c(c2C)-c2nn(Cc4cccc(Cl)c4)cc2CC3)c1,–,"inconclusive: 11.2 µM [inhibitor, partial curve, poor fit]"
Cc1ccc(OCCn2c(CNC(=O)c3ccco3)nc3ccccc32)cc1,inactive: 19.1%,–
CCN1CCC(c2nc3ccc(C)cc3c(=O)[nH]2)CC1,–,inactive
CCC(CO)NC(=S)Nc1cccc(C)c1 (stereo not given),inactive: 1.6%,–
CCOC(=O)c1sc(=S)n(C)c1NC(=O)c1cccc(Br)c1,–,"inconclusive: 31.6 µM [inhibitor, single point]"
COc1ccccc1Oc1coc2cc(OC(=O)c3cccs3)ccc2c1=O,inactive: -1.28%,–
CCn1ccnc1CN(CC1CCN(CCc2ccccc2C)CC1)C1CCCC1,–,"inconclusive: 7.94 µM [inhibitor, full curve]"

SMILES,"activity change, negative = inhibition",Potency
Cc1ccsc1C(=O)NCC1Cn2cccc2CN1C (stereo not given),–,active: 31.6 µM
O=C(CSC1=Nc2ccccc2C2=NC(Cc3ccccc3)C(=O)N12)Nc1ccccc1C(F)(F)F (stereo not given),–,"inconclusive: 28.2 µM [inhibitor, partial curve, poor fit]"
COc1ccc(Cl)cc1NC(=O)N(C)CC1CCOCC1,inactive: 30.3%,–
CCCCNC(C(=O)c1c[nH]c2ccccc12)c1ccccc1 (stereo not given),inactive: -28.3%,–
CCCCN(C)CCCNC(=O)Cn1ncc2c3ccccc3n(Cc3ccccc3F)c2c1=O,–,"inconclusive: 15.8 µM [inhibitor, partial curve, poor fit]"
O=C(c1csc(-c2cccs2)n1)N1CCCC1c1nc2ccccc2[nH]1 (stereo not given),–,"inconclusive: 17.8 µM [inhibitor, single point]"
CCc1noc(-c2cccn3c(CNC(=O)c4ccccc4)nnc23)n1,–,active: 28.2 µM
Cc1nc(C)n(CCCNc2nccc(-c3cc(C(=O)O)ccn3)n2)n1,–,"inconclusive: 20 µM [inhibitor, partial curve, poor fit]"
Cc1cc(C)cc(NC(=O)NCc2c(C)nn(C)c2C)c1,inactive: -3.86%,–
CN1CCC(N[C@@H]2CCC[C@@H](C(=O)N(C)Cc3cccnc3)CC(=O)N(C)C2)CC1,inactive: 16% [at 86.2 µM],–
CC(=O)c1cccc(NC(=O)CN2CCN(CCc3ccccc3)CC2)c1,inactive: -9.45%,–
CCNC(=O)N(C1CC1)C1CCOC2(CCN(C(=O)C3(c4ccccc4)CC3)CC2)C1 (stereo not given),inactive: -13.2%,–
CCOC(=O)c1cc2c(=O)n3ccccc3nc2n(CCOC)c1=NC(=O)C(C)(C)Oc1ccc(Cl)cc1,–,"inconclusive: 3.16 µM [inhibitor, partial curve, poor fit]"
CCCCOc1ccc(-c2nc(C3CC(=O)N(c4ccc(F)cc4)C3)no2)cc1 (stereo not given),–,active: 31.6 µM
Nc1c(N(Cc2ccco2)C(=O)COc2ccc(Cl)cc2)c(=O)[nH]c(=O)n1Cc1ccccc1,–,"inconclusive: 39.8 µM [inhibitor, single point]"
CC(C)NC(=O)NC(=O)CN(C)C(C)C(C)(C)C (stereo not given),inactive: 13.9%,–
Cc1ccc2c(C(=O)Nc3ccc(N4CCOCC4)cc3)cc(NC(=O)C3CCC3)cc2n1,–,"inconclusive: 14.1 µM [inhibitor, partial curve]"
CCOc1ccc(NC(=O)Cn2c(=O)n(Cc3nc(-c4ccccc4)no3)c(=O)c3cc4c(cc32)OCO4)cc1,–,"inconclusive: 15.8 µM [inhibitor, partial curve, poor fit]"
O=c1oc2ccc(Br)cc2cc1S(=O)(=O)N1CCCCC1,inactive: 19.7%,–
CC1CCN(C(CNC(=O)c2ccccc2SC(F)F)c2cccs2)CC1 (stereo not given),inactive: 29.5%,–
O=C(O)C#Cc1cccc2ccccc12,–,"inconclusive: 35.5 µM [inhibitor, single point]"
C=CCN(C)C(=O)[C@@H](C)C1CC[C@@]2(C)Cc3sc(-c4cccnc4)nc3[C@@H](C)[C@@H]2[C@H]1O (stereo not given in full),–,active: 31.6 µM
Cc1c(CCC(=O)N2CCCC2)c(=O)oc2cc(O)ccc12,inactive: -4940%,–
NC(=S)NNC(=S)NCc1ccccc1,inactive: 0.203%,–
COc1ccc(NC2CCCN(C(=O)CCN3CCCC3=O)C2)cc1OC (stereo not given),–,"inconclusive: 12.6 µM [inhibitor, partial curve, poor fit]"

# Reference: PubChem BioAssay AID1347165 (National Center for Advancing Translational Sciences (NCATS), 2019)
